In all, about 150,000 compounds went through this assay and about 540 (0.36%) showed an effect of 50% or more. This is one part of the list.
Tested on: Plasmodium falciparum
Experiment: Primary screen in NF54 nanoGlo assay, in single point, at 2uM, 72h; a lower Z score goes with more inhibition
Type: functional, Erythrocyte
Conditions: timepoint 72 hour

SMILES | % Inhibition [%] | Z score
CN(CC1(N(C)C)CCC1)C(=O)Nc1nnc(C(F)F)s1 | -12 | 1.23
O=C(NC1CCCCc2cc(Br)ccc21)N[C@@H]1CCOC1 (stereo partly specified) | 7 | -0.98
CCOc1ccccc1CNC(=O)C1CCN(c2ccc(-c3cccs3)nn2)CC1 | -10 | 1.96
CCCc1nc(C(=O)NC[C@H]2CN(c3nncs3)CCO2)co1 | -4 | 0.55
Cc1c(C2CCCC2)nc(N)c(C#N)c1-c1cnc(NC[C@H]2CCCO2)nc1 | -9 | 1.51
O=C(NC[C@H]1CCCO1)c1cc(S(=O)(=O)N2CCCCC2)ccc1Cl | -8 | 1.03
Cc1cc(C(=O)N[C@H]2CCN(Cc3ccccn3)C[C@@H]2O)c(C)o1 | 1 | -0.09
O=C(CN1C(=O)c2ccccc2C1=O)Nc1ccc(F)c(S(=O)(=O)Nc2cccc(C(F)(F)F)c2)c1 | -2 | 0.28
Cn1cc(C(=O)NC2CC3CC3C2)c(-c2ccco2)n1 (stereo unspecified) | -6 | 0.83
C=C[C@](C)(CC)C(=O)NCc1ncn(C)n1 | -8 | 0.98
CC(C)C[C@H](NC(=O)c1ccccn1)c1nc2ccccc2[nH]1 | -11 | 1.35
Cc1cc(OCC(=O)NC2CCCCC2C)nnc1C (stereo unspecified) | 8 | -1.52
O=C(O)c1ccc(CN2CC[C@H](c3ccccc3)[C@H](CO)C2)s1 | -4 | 0.77
COCc1cnc(NC(=O)[C@@H]2CN(C(C)C)CCO2)s1 | -2 | 0.21
O=C(NCCNc1cc(Nc2ccccn2)ncn1)c1cccc(Cl)c1 | 0 | 0.02
CC(C)c1ccc(CN2CCC[C@@]3(CCN(CCCn4cnnn4)C3)C2=O)cc1 | -3 | 0.31
CC(C)Oc1ccccc1[C@H]1CC(=O)Nc2c1ncn2-c1cccnc1 | -11 | 1.45
CCC[C@H](C)CN1CCCn2nc(CNC(=O)C3CCC3)cc2C1 | -13 | 2.22
Cc1cccc(F)c1S(=O)(=O)NCC(F)(F)CO | -15 | 2.81
CC(C)(C)c1ccc([C@@H](CC(=O)NCc2ccc(F)cc2)c2c[nH]c3ccccc23)cc1 | 6 | -0.76
Cc1ccccc1OCC(=O)NCc1ccc(-c2ccoc2)o1 | -15 | 3.09

SMILES | % Inhibition [%] | Z score
Cc1cc(C)c(-c2c(-c3ccccc3)ncn2CCn2ccnc2)cc1C | -7 | 0.87
NS(=O)(=O)c1ccc(Cn2cnc(-c3ccccc3)c2-c2ccco2)cc1 | 0 | 0.07
CC(=O)N1CCN(c2c(C)cnc3c2c(=O)n(CC(=O)Nc2cc(C)ccc2C)c(=O)n3C)CC1 | 0 | -0.06
Cc1ccc(C)c(S(=O)(=O)NCCC(=O)N2CCNC(=O)C2)c1 | 2 | -0.24
O=C(NC1CCCCC1)N1Cc2nc[nH]c2C[C@H]1c1nc(-c2ccc3c(c2)OCO3)no1 | 17 | -2.7
Cc1cccc(Oc2nc(N3CCCCC3)nc3c2CN(S(=O)(=O)c2ccc(F)cc2)CC3)c1 | -6 | 0.94
Cc1nnsc1C(=O)N1C[C@@H]2CC[C@H]1CN(S(=O)(=O)N(C)C)C2 | 28 | -2.81
O=C(ON1C(=O)CCC1=O)c1ccc2noc(-c3ccccc3)c2c1 | -14 | 1.71
COc1ccc(NC(=O)CN2CCN(Cc3ccccc3C)S2(=O)=O)cc1Cl | -1 | 0.23
CCc1ccccc1NC(=O)N1CCN(c2ccc(-c3noc(C4CCC4)n3)cc2)CC1 | -14 | 2.49
Fc1ccc(OCc2nccc(-c3ccc4c(c3)OCO4)n2)cc1 | 32 | -0.54
COc1cccc(C(=O)N2CCN(c3nc4ncccc4o3)CC2)c1 | -3 | 0.33
FC(F)[C@H](NCc1nnc(C2CC2)s1)c1ccccc1 | 2 | -0.43
COC1C(C)C(NS(=O)(=O)CCCN2CCOCC2)C1(C)C (stereo unspecified) | 3 | -0.65
CCc1nnc(NCc2ccc(C(=O)NC3CC3)cc2)c(C#N)c1CC | -12 | 1.24
CCOc1cc(-c2nccn2-c2cncc(C(=O)O)c2)ccc1OC | -5 | 0.59
Cc1nsc(N[C@@H](C)c2ncccc2F)n1 | 33 | -3.79
CC(C)[C@H](NC(=O)c1ccc(Cl)cc1Br)C(=O)O | 12 | -1.27
CNc1nc(N2CCn3nc(CNC(=O)C4CCC4)cc3C2)ncc1F | -16 | 2.78
CN1CCN(CCC(=O)NCc2cccc(Cl)c2)C[C@H]1c1ccccc1 | -16 | 2.01
O=C(NCCOCCn1ccnc1)c1cncc(Br)c1 | -10 | 1.13

SMILES | % Inhibition [%] | Z score
CCCN1C[C@@H](NS(=O)(=O)c2cc(-n3cccn3)ccc2OC)CC1=O | 6 | -1.21
Cc1cccc2ncc(C(=O)N[C@@]34COC[C@@H]3C4)n12 | -12 | 1.31
O=C(C[C@H]1COCCN1C(=O)c1n[nH]c2ccccc12)c1ccco1 | -14 | 1.75
COc1ccc(-c2nnc(-c3cccs3)c3conc23)cc1 | -41 | 4.75
CCN(CC)[C@H]1CCN(C2CCN(c3ccc(-n4ccnc4)cc3)CC2)C1 | 9 | -1.14
CCOC[C@H]1CCN(C(=O)c2nccc3[nH]ccc23)C1 | 2 | -0.32
CCC(c1cccs1)N1C(=O)[C@H]2CN(C(=O)NC)C[C@H]2C1=O (stereo partly specified) | -12 | 1.46
CCc1nnsc1C(=O)Nc1cc(C(F)(F)F)c[nH]c1=O | -3 | 0.35
CC(C)n1ccnc1CNc1cccc(C(=O)N2CCC[C@H](O)C2)c1 | 10 | -1.62
CCCS(=O)(=O)Nc1cc(-c2cccs2)n[nH]1 | -17 | 3.09
CC(C)CCN1C(=O)CC[C@@H]2CN(C(=O)c3ccc(=O)[nH]n3)CC[C@@H]21 | -11 | 1.84
Cc1nc2ccc(NC(=O)Nc3ccc(F)cc3F)cc2s1 | -9 | 1.17
O=C(c1nn[nH]c1Nc1ccccc1F)N1CCN(c2ccccc2)CC1 | -2 | 0.23
O=C(CCC1CCN(C(=O)C[C@H]2CCC(=O)N2)CC1)Nc1ccc2c(c1)OCCO2 | 10 | -1.25
O=C(c1cc(C2CC2)nc2ccccc12)N1CCN(c2ncccn2)CC1 | -8 | 1.27
Cc1ccccc1NC(=O)[C@H]1CCn2c(nc3ccccc32)C1 | -6 | 0.57
CC(C)(C)[C@H](CN1CCCC1)NC(=O)c1ccc(-c2cc(C#N)ccn2)cc1 | -7 | 1.25
O=C(c1coc(-c2cccnc2)n1)N1CCCCC[C@@H]1Cc1ccccc1Cl | 2 | -0.29
CC(C)[C@@H]1CCO[C@@H]1CNC(=O)N1CCC(n2cc(C(N)=O)nn2)CC1 | 12 | -1.58
Cn1nc2n(c1=O)CC[C@@H](NC(=O)c1cc(F)ccc1Cl)CC2 | -1 | 0.2
Cc1cc(=O)c(C(=O)N2CCc3nocc3C2)cn1C | -15 | 1.42

SMILES | % Inhibition [%] | Z score
CCCS(=O)(=O)N1CCCc2cc(NS(=O)(=O)c3ccc(OCC)c(F)c3)ccc21 | 18 | -2.3
O=C(Nc1ccc2c(c1)cc(C(=O)Nc1ccccc1)n2Cc1ccc(C(F)(F)F)cc1)c1ccc(F)cc1 | -2 | 0.42
CCN(C)C1=Nc2ccccc2Oc2ccc(NC(=O)COc3ccccc3)cc21 | 3 | -0.44
Cc1c(C(=O)N(CCO)C(C)C)sc2ncnc(NCc3cc4ccccc4s3)c12 | 24 | -3.36
CC[C@@H]1CN(c2nc3ccccc3s2)CC[C@]1(C)O | -1 | 0.25
O=C(NCC1CC1)[C@H](C1CCCC1)N1CCN(C(=O)c2ccc(C(F)(F)F)cc2)CC1 | -9 | 0.83
Cc1nnc(NCCc2ccc(F)cc2)[nH]c1=O | -3 | 0.47
Cn1nccc1-c1cccc(-c2nc3c(cc2C(N)=O)CCC3)c1 | -6 | 1.24
Cn1cc(CC(=O)NCc2ccccc2F)c2cccnc21 | -21 | 2.46
Cn1nc(C2CCCC2)cc1NC(=O)c1csnn1 | -11 | 1.45
CC(CCCO)NC(=O)NC1CCCC1c1ccc(F)cc1 (stereo unspecified) | -19 | 2.19
CC(C)(C)OC(=O)NCc1ccccc1-c1ncc[nH]1 | 3 | -0.37
CCOc1cc(N2CCC[C@H]2C(=O)N(CC)CC)ncn1 | -9 | 0.79
CC(OC(=O)C(O)C(C)c1ccccc1)C(N)=O (stereo unspecified) | 3 | -0.49
Cc1c(CN2CCC([C@]3(Cc4ccccc4Cl)NC(=O)N(CC4CC4)C3=O)CC2)cnn1C | -1 | 0.29
Cc1nc(O)cc(CCNC(=O)CCC(F)(F)F)n1 | 5 | -0.98
c1coc(CNc2ncnc3c2CCCC3)c1 | -5 | 0.96
CCc1cc(CNC(=O)N2CCN(CC(F)(F)F)[C@@H](C)C2)on1 | -6 | 0.79
CN(C(=O)OC(C)(C)C)[C@H]1CCCN(C(=O)c2ccn(C)c(=O)c2)C1 | 3 | -0.37
CC(C1CC2CCC1C2)N1C(=O)NC(=O)C1=O (stereo unspecified) | 2 | -0.3

— ChEMBL document CHEMBL4888484, “Replenishing the malaria drug discovery pipeline: Screening and hit evaluation of the MMV Hit Generation Library 1 (HGL1) against asexual blood stage Plasmodium falciparum ,using a nano luciferase reporter read-out” (2022)
